Target: human EphA2 (Homo sapiens, UniProt P29317)
Assay: Competition Binding Assay (fluorescence polarisation, competition with fluorescent tracer BCY90)
Method: Peptides without a fluorescent tag were tested in competition with a peptide with a fluorescent tag and a known Kd.
Peptides were diluted to an appropriate concentration in assay buffer as described in the direct binding assay with a maximum of 5% DMSO, then serially diluted 1 in 2. […] Measurements were conducted, however the gain was determined prior to the first measurement. Data analysis was in Systat Sigmaplot version 12.0 where the mP values were fit to a user defined cubic equation to generate a Ki value: • f=ymax+(ymin−ymax)/Lig*((Lig*((2*((Klig+Kcomp+Lig+Comp−Prot*c)^2−3*(Kcomp*(Lig−Prot*c)+Klig*(Comp−Prot*c)+Klig*Kcomp))^0.5*COS(ARCCOS((−2*(Klig+Kcomp+Lig+Comp−Prot*c)^3+9*(Klig+Kcomp+Lig+Comp−Prot*c)*(Kcomp*(Lig−Prot*c)+Klig*(Comp−Prot*c)+Klig*Kcomp)−27*(−1*Klig*Kcomp*Prot*c))/(2*((((Klig+Kcomp+Lig+Comp−Prot*c)^2−3*(Kcomp*(Lig−Prot*c)+Klig*(Comp−Prot*c)+Klig*Kcomp))^3)^0.5)))/3))−(Klig+Kcomp+Lig+Comp−Prot*c)))/((3*Klig)+((2*((Klig+Kcomp+Lig+Comp−Prot*c)^2−3*(Kcomp*(Lig−Prot*c)+Klig*(Comp−Prot*c)+Klig*Kcomp))^0.5*COS(ARCCOS((−2*(Klig+Kcomp+Lig+Comp−Prot*c)^3+9*(Klig+Kcomp+Lig+Comp−Prot*c)*(Kcomp*(Lig−Prot*c)+Klig*(Comp−Prot*c)+Klig*Kcomp)−27*(−1*Klig*Kcomp*Prot*c))/(2*((((Klig+Kcomp+Lig+Comp−Prot*c)^2−3*(Kcomp*(Lig−Prot*c)+Klig*(Comp−Prot*c)+Klig*Kcomp))^3)^0.5)))/3))−(Klig+Kcomp+Lig+Comp−Prot*c)))). […]

Chain of human EphA2 (P29317 24-976): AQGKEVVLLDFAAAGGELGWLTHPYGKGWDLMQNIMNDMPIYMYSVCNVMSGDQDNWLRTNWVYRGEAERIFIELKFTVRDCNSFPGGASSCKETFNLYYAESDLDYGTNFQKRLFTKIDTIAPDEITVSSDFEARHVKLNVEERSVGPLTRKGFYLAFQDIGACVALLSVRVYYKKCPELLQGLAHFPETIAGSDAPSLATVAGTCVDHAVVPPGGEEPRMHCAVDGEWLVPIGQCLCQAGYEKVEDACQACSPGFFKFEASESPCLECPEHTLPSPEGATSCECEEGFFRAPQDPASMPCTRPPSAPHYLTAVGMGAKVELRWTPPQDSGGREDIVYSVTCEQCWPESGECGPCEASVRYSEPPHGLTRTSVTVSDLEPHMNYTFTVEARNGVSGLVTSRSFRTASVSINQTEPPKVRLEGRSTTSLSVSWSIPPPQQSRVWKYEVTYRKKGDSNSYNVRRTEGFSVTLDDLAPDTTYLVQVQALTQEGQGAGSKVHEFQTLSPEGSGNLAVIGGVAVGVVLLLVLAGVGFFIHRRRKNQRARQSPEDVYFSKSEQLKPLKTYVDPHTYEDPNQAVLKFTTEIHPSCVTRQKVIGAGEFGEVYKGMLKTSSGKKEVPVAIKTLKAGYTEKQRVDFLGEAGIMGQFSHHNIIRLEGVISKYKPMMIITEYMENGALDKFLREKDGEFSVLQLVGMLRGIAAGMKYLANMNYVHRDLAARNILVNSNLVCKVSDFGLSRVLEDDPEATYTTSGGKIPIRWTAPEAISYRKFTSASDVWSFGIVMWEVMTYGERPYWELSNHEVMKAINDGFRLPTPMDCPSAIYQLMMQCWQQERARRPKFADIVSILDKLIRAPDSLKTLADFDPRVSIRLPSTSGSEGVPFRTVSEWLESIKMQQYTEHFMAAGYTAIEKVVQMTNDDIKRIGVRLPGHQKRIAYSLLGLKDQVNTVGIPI

Substance: Ci[HyP][Cba]VNPLCiiL[3,3-DPA]P[dD]WTCiii-[dA] [BCY12865]
- Ki: 0.857 nM

Substance: A-[HArg]-D-Ci[HyP][Cba]VNPLCiiLEP[dD]WTCiii [BCY12863]
- Ki: 5.84 nM

— US20260327262A1, “BICYCLIC PEPTIDE LIGANDS SPECIFIC FOR EPHA2” (BicycleTx Limited, priority 2019, published 2026)
